Assay results as given in paper PMC9911399, “Two distinct binding modes provide the RNA-binding protein RbFox with extraordinary sequence specificity”.
Where a chain is given by its changes, count along the chain named. The list shows a part of the results.

B1: CUCCAUU (DNA:RNA)
RNA: GGGAGACCGGAAUUCAGAUUGUCCCUCCAUUUUAAAUCCCGUCGUAGCCACCA
DNA 1: CAATCTGAATTCCGGTCTCCC
DNA 2: TGGTGGCTACGACGGGATT
B2: CAUACGC (DNA:RNA)
RNA: B1 RNA with U26A, C27U, C28A, A29C, U30G, U31C
DNA 1: CAATCTGAATTCCGGTCTCCC
DNA 2: TGGTGGCTACGACGGGATT
B3: GCUCUGG (DNA:RNA)
RNA: B1 RNA with C25G, U26C, C27U, A29U, U30G, U31G
DNA 1: CAATCTGAATTCCGGTCTCCC
DNA 2: TGGTGGCTACGACGGGATT
B4: GGGACGA (DNA:RNA)
RNA: GGGAGACCGGAAUUCAGAUUGUCCGGGACGAUUAAAUCCCGUCGUAGCCACCA
DNA 1: CAATCTGAATTCCGGTCTCCC
DNA 2: TGGTGGCTACGACGGGATT
B5: ACUUCAG (DNA:RNA)
RNA: B4 RNA with G25A, G26C, G27U, A28U, G30A, A31G
DNA 1: CAATCTGAATTCCGGTCTCCC
DNA 2: TGGTGGCTACGACGGGATT
B6: AGCGCGG (DNA:RNA)
RNA: B4 RNA with G25A, G27C, A28G, A31G
DNA 1: CAATCTGAATTCCGGTCTCCC
DNA 2: TGGTGGCTACGACGGGATT
B7: GAGAUCU (DNA:RNA)
RNA: B4 RNA with G26A, C29U, G30C, A31U
DNA 1: CAATCTGAATTCCGGTCTCCC
DNA 2: TGGTGGCTACGACGGGATT
B8: AAUUAAG (DNA:RNA)
RNA: B1 RNA with C25A, U26A, C27U, C28U, U30A, U31G
DNA 1: CAATCTGAATTCCGGTCTCCC
DNA 2: TGGTGGCTACGACGGGATT
B9: GCGUAUU (DNA:RNA)
RNA: B1 RNA with C25G, U26C, C27G, C28U
DNA 1: CAATCTGAATTCCGGTCTCCC
DNA 2: TGGTGGCTACGACGGGATT
B10: CCCAAAC (DNA:RNA)
RNA: B1 RNA with U26C, C28A, U30A, U31C
DNA 1: CAATCTGAATTCCGGTCTCCC
DNA 2: TGGTGGCTACGACGGGATT
B11: UGUGCGU (DNA:RNA)
RNA: B4 RNA with G25U, G27U, A28G, A31U
DNA 1: CAATCTGAATTCCGGTCTCCC
DNA 2: TGGTGGCTACGACGGGATT
B12: GAGGGUG (DNA:RNA)
RNA: B4 RNA with G26A, A28G, C29G, G30U, A31G
DNA 1: CAATCTGAATTCCGGTCTCCC
DNA 2: TGGTGGCTACGACGGGATT
B13: AUUGGCC (DNA:RNA)
RNA: B1 RNA with C25A, C27U, C28G, A29G, U30C, U31C
DNA 1: CAATCTGAATTCCGGTCTCCC
DNA 2: TGGTGGCTACGACGGGATT
B14: GAAGUUG (DNA:RNA)
RNA: B1 RNA with C25G, U26A, C27A, C28G, A29U, U31G
DNA 1: CAATCTGAATTCCGGTCTCCC
DNA 2: TGGTGGCTACGACGGGATT
B15: UUCUCUC (DNA:RNA)
RNA: B1 RNA with C25U, C28U, A29C, U31C
DNA 1: CAATCTGAATTCCGGTCTCCC
DNA 2: TGGTGGCTACGACGGGATT
B16: UCCCUGU (DNA:RNA)
RNA: B1 RNA with C25U, U26C, A29U, U30G
DNA 1: CAATCTGAATTCCGGTCTCCC
DNA 2: TGGTGGCTACGACGGGATT
B17: UAAAACU (DNA:RNA)
RNA: B1 RNA with C25U, U26A, C27A, C28A, U30C
DNA 1: CAATCTGAATTCCGGTCTCCC
DNA 2: TGGTGGCTACGACGGGATT
B18: GCCCUUU (DNA:RNA)
RNA: B1 RNA with C25G, U26C, A29U
DNA 1: CAATCTGAATTCCGGTCTCCC
DNA 2: TGGTGGCTACGACGGGATT
B19: UUCGCAG (DNA:RNA)
RNA: B1 RNA with C25U, C28G, A29C, U30A, U31G
DNA 1: CAATCTGAATTCCGGTCTCCC
DNA 2: TGGTGGCTACGACGGGATT
B20: GUGAAUG (DNA:RNA)
RNA: B1 RNA with C25G, C27G, C28A, U31G
DNA 1: CAATCTGAATTCCGGTCTCCC
DNA 2: TGGTGGCTACGACGGGATT
B21: CAUUUAA (DNA:RNA)
RNA: B1 RNA with U26A, C27U, C28U, A29U, U30A, U31A
DNA 1: CAATCTGAATTCCGGTCTCCC
DNA 2: TGGTGGCTACGACGGGATT
B22: CGUCUAG (DNA:RNA)
RNA: B1 RNA with U26G, C27U, A29U, U30A, U31G
DNA 1: CAATCTGAATTCCGGTCTCCC
DNA 2: TGGTGGCTACGACGGGATT
B23: CCACAGG (DNA:RNA)
RNA: B1 RNA with U26C, C27A, U30G, U31G
DNA 1: CAATCTGAATTCCGGTCTCCC
DNA 2: TGGTGGCTACGACGGGATT
B24: UGAGUCG (DNA:RNA)
RNA: B4 RNA with G25U, G27A, A28G, C29U, G30C, A31G
DNA 1: CAATCTGAATTCCGGTCTCCC
DNA 2: TGGTGGCTACGACGGGATT
B25: CCGAUUG (DNA:RNA)
RNA: B1 RNA with U26C, C27G, C28A, A29U, U31G
DNA 1: CAATCTGAATTCCGGTCTCCC
DNA 2: TGGTGGCTACGACGGGATT
B26: GCCUUCC (DNA:RNA)
RNA: B1 RNA with C25G, U26C, C28U, A29U, U30C, U31C
DNA 1: CAATCTGAATTCCGGTCTCCC
DNA 2: TGGTGGCTACGACGGGATT
B27: GGCAAAU (DNA:RNA)
RNA: B1 RNA with C25G, U26G, C28A, U30A
DNA 1: CAATCTGAATTCCGGTCTCCC
DNA 2: TGGTGGCTACGACGGGATT
B28: UAAAUAG (DNA:RNA)
RNA: B4 RNA with G25U, G26A, G27A, C29U, G30A, A31G
DNA 1: CAATCTGAATTCCGGTCTCCC
DNA 2: TGGTGGCTACGACGGGATT
B29: GCAAUUC (DNA:RNA)
RNA: B4 RNA with G26C, G27A, C29U, G30U, A31C
DNA 1: CAATCTGAATTCCGGTCTCCC
DNA 2: TGGTGGCTACGACGGGATT
B30: UAAGGCC (DNA:RNA)
RNA: GGGAGACCGGAAUUCAGAUUGUCCUAAGGCCUUAAAUCCCGUCGUAGCCACCA
DNA 1: CAATCTGAATTCCGGTCTCCC
DNA 2: TGGTGGCTACGACGGGATT
B31: GAAGUUA (DNA:RNA)
RNA: B30 RNA with U25G, G29U, C30U, C31A
DNA 1: CAATCTGAATTCCGGTCTCCC
DNA 2: TGGTGGCTACGACGGGATT

Molecular target: T1, RBFOX1 RRM RbFoxmut (Fox-RRM*) (Homo sapiens, UniProt Q9NWB1 109-208, R118D;E147R;N151S;E152T)
T1 sequence: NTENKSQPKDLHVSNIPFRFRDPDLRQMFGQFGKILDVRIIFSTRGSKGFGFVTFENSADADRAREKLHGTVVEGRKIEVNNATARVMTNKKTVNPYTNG
Experiment: EMSA; HiTS-Eq, 1 nM pool, 10 min; buffer printed only for the single-RNA assays: 10 mM Tris pH 7.5, 150 mM NaCl, 3.4 mM EDTA, 0.001% NP-40, 30 C
Settings: tags: His6 N-terminal (pET28a); label: 5' 32P
How it was run: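 Purified RbFox RRM (wild type or mutant) was equilibrated for 10 min in 50 µL with 1 nM of a 5′-radiolabelled pool of RNA with 7 randomized nucleotides, its flanks annealed to DNA oligonucleotides, across increasing protein concentrations. Free RNA was separated by 8% native PAGE, excised, reverse-transcribed, PCR-barcoded and sequenced on an Illumina HiSeq 2500. Relative association constants came from read-count changes of each variant against the control reaction, normalised to the cognate motif.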

First: B1
Second: B2
The binding signal of the first is lower: 0.0948 KA relative to UGCAUGU for the first, 0.1 KA relative to UGCAUGU for the second.

Compared with B3, B4 is higher in binding signal: 0.0884 KA relative to UGCAUGU for the first, 0.129 KA relative to UGCAUGU for the second.

First: B5
Second: B6
The binding signal of the first is higher: 0.119 KA relative to UGCAUGU for the first, 0.116 KA relative to UGCAUGU for the second.

Compared with B7, B8 is higher in binding signal: 0.0437 KA relative to UGCAUGU for the first, 0.112 KA relative to UGCAUGU for the second.

Compared with B9, B10 is lower in binding signal: 0.115 KA relative to UGCAUGU for the first, 0.0842 KA relative to UGCAUGU for the second.

Compared with B11, B12 is lower in binding signal: 0.208 KA relative to UGCAUGU for the first, 0.18 KA relative to UGCAUGU for the second.

First: B13
Second: B14
The binding signal of the first is higher: 0.272 KA relative to UGCAUGU for the first, 0.122 KA relative to UGCAUGU for the second.

Compared with B15, B16 is higher in binding signal: 0.0655 KA relative to UGCAUGU for the first, 0.119 KA relative to UGCAUGU for the second.

First: B17
Second: B18
The binding signal of the first is lower: 0.0578 KA relative to UGCAUGU for the first, 0.0862 KA relative to UGCAUGU for the second.

First: B19
Second: B20
The binding signal of the first is lower: 0.0914 KA relative to UGCAUGU for the first, 1.45 KA relative to UGCAUGU for the second.

First: B21
Second: B22
The binding signal of the first is higher: 0.141 KA relative to UGCAUGU for the first, 0.115 KA relative to UGCAUGU for the second.

First: B23
Second: B24
The binding signal of the first is lower: 0.0929 KA relative to UGCAUGU for the first, 0.177 KA relative to UGCAUGU for the second.

First: B25
Second: B26
The binding signal of the first is higher: 0.181 KA relative to UGCAUGU for the first, 0.118 KA relative to UGCAUGU for the second.

First: B27
Second: B28
The binding signal of the first is lower: 0.0624 KA relative to UGCAUGU for the first, 0.0827 KA relative to UGCAUGU for the second.

Compared with B29, B30 is higher in binding signal: 0.0484 KA relative to UGCAUGU for the first, 0.186 KA relative to UGCAUGU for the second.

B31 was tested, and the binding signal was 0.113 KA relative to UGCAUGU.
